# Laboratory results: article PMC12136788
# The other results are listed elsewhere or left out.
# T1: UNK ZnF1-3 (human, UniProt Q9C0B0 31-174)
# T1 sequence: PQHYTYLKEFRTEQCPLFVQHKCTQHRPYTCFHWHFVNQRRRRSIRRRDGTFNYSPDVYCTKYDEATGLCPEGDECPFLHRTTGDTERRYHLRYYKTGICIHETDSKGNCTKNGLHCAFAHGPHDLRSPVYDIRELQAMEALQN
# B1: chr7:20150648:20150649:-_ENSMUSG00000044709_ENSMUST00000117222|mus_hu|motif|central (ssRNA)
# RNA: GGGAGUUCUACAGUCCGACGAUCCUUGAAGGUAUAUGAAAUAAUGUCACUACAUCGGAGCAGCGCCUCUGCUUGCACACCGGUGGGAGUCUGCAGCUGUGACACGUAGAAGUUGGCCACAUCCAGGUCGGUGGCUCCAAAGUGCAACAGAGGAUUGAGCAUCA
# B2: 143153144_143153264_2571_3pUTR_ENSMUSG00000030275_ENSMUST00000032413|mouse|control|control (ssRNA)
# RNA: GGGAGUUCUACAGUCCGACGAUCAGCACUUAUGUGACCAAAGUGCAAAGCCUGUCUGACUAAUCUAAGUAAAGUUACCCCUGACUGCUCAACCCACAGAGCAGUCUUCAAAGAUUAAAGCCUUCUUGUCUACCUCAAAGACCUCAACAGAGGAUUGAGCAUCA
# B3: 46694385_46694505_3160_3pUTR_ENSG00000069329_ENST00000568784|human|control|control (ssRNA)
# RNA: GGGAGUUCUACAGUCCGACGAUCAAAGGAUGAGACCUUCAUAAAUUGGCCCCUCGGAUUCUGGUGAUUCCCGCCGCAAGCGCAAAUGCUCCAGUGUGUUAUGAAAAUGUUUGUUAAUCUGCUCUGUUUCUUCACUGGAUUCAACAACAGAGGAUUGAGCAUCA
# B4: chr4:134969704:134969705:-_ENSMUSG00000059713_ENSMUST00000030606|mus_mus|motif|central (ssRNA)
# RNA: GGGAGUUCUACAGUCCGACGAUCACUCCCAUGGUUUAAUUAUGCGUAAAGCUUUCCUCUGAAAACCAAAUCCUCCAGUCGGAAAAUAGUUUACAUAAAAAUAUAAAGCCCAGGCCCACCGUUAGUCUGGAAUAGAACUUGAUUCAACAGAGGAUUGAGCAUCA
# B5: 53597998_53599450_495_3pUTR_ENSG00000023287_ENST00000025008|human|control|control (ssRNA)
# RNA: GGGAGUUCUACAGUCCGACGAUCCAGUGUUAACCAGAAAUACAUAUAACUUCAUGAUGAUUUAUCUGAAUUCUGUGAGCUUAUACCUCACCCUCUGAUACAGUUACGUCAGGCACUGUGAAAAGGACUACCACUUUUCUUAAACAACAGAGGAUUGAGCAUCA
# B6: chr14:90871201:90871202:+_ENSG00000198668_ENST00000553542|hu_mus|FALSE|FALSE (ssRNA)
# RNA: GGGAGUUCUACAGUCCGACGAUCCGACCAAUACAUGCAGACUUUGUGUGUGGACAGAGGGGCUUCUGACAUUCAGCUUCGCUAGAUACAAACAGAAUGAAGAAAUGAACUUUUUCUUUUUUUUUCUUUUUUUUGUAAGAGGUACAACAGAGGAUUGAGCAUCA
# B7: chr9:88289291:88289292:-_ENSMUSG00000032422_ENSMUST00000140439|mus_mus|FALSE|FALSE (ssRNA)
# RNA: GGGAGUUCUACAGUCCGACGAUCUCCUUCUUCUCUUUCCUUUCAGAGGAGGGAUCUUCAAAAAAGUCUACAUACGGAAUGCUAAUUUUCCAGGCAGCAAGGUUUCGAGGAGUGUUAGGUGUGCUCACAGCUUCUACUGGAGAGCAACAGAGGAUUGAGCAUCA
# B8: chr14:35777207:35777208:+_ENSG00000100902_ENST00000261479|hu_hu|motif|central (ssRNA)
# RNA: GGGAGUUCUACAGUCCGACGAUCUUUGUCAGGUACUUUCUUCUGUGUGACAAUUACUGCACAGUCUUUCCCUCUGACAGCGGCUGAUGUAAGGCCACCCUGGUUAAUAGCCUUAAAAGCAUAUUCUACUUGGUAGAGCCGACCCAACAGAGGAUUGAGCAUCA
# B9: chr14:59836542:59836543:+_ENSMUSG00000035469_ENSMUST00000043227|mus_mus|FALSE|FALSE (ssRNA)
# RNA: GGGAGUUCUACAGUCCGACGAUCCCAAGCAAAUAACUCUCCAUCAGCUGCUAAAGCCAUCGAAUGAUGUGAACCACAAGCUACUUCAAUCACCUGCUUGAUCAAGAGAUUAGUACAGACUUGGACAGGAGCAAUGCCUUGGUUCAACAGAGGAUUGAGCAUCA
# B10: 154938479_154938680_1490_3pUTR_ENSG00000160691_ENST00000448116|human|control|control (ssRNA)
# RNA: GGGAGUUCUACAGUCCGACGAUCACCACCCACUGCUUGCCGGGCCUUGUCUAGGUUCUGGACGUUGACAUAGGAGGGAUCAUCAAAAAGCUCUCUGCCUGCUGGACAGGGUGGUGGAGGUGGCAUCUGUUUGCGGACUUCUGGCAACAGAGGAUUGAGCAUCA
# B11: 113244221_113245190_541_CDS_ENSG00000155366_ENST00000369637|human|control|control (ssRNA)
# RNA: GGGAGUUCUACAGUCCGACGAUCGGCCAUCUCAAACACCUCCCGCACUCCCUCCUUGGUCUUGGCUGAGCACUCAAGGUAGCCAAAGGCACUGAUCCGGUUCGCCAUGUCCCGGCCUUCCUCAGACCGAACGGGCUCCUGCUUCAACAGAGGAUUGAGCAUCA
# B12: chr4:124478334:124478335:+_ENSMUSG00000028894_ENSMUST00000094782|mus_mus|motif|central (ssRNA)
# RNA: GGGAGUUCUACAGUCCGACGAUCGGCUGAAUAAGGCAAAGUACAGUUACUUAAAACUUUUAAAUAAAAAUGAAUAGGGAGCGGUUUGUGUUAAAUAACUAGAGUUGAAUGUGGAACGUCAGUUCUACUAUGGUGGAUUGCCCCCAACAGAGGAUUGAGCAUCA
# B13: chr7:127231458:127231459:+_ENSG00000004059_ENST00000000233|hu_hu|FALSE|FALSE (ssRNA)
# RNA: GGGAGUUCUACAGUCCGACGAUCCAGGCUCCAACAACAGAGAGAACAUGCAGGCAGGAGCAGGAGCAGAGGCCUGUGGCUAUGGGGGAGGAAAAGUGGGAGGAAAGGGCACUGCCUGAGGAGUCCGGGAGUCUGGUCAUCCCGCAACAGAGGAUUGAGCAUCA
# B14: chr3:31678068:31678069:+_ENSG00000163527_ENST00000295770|hu_mus|FALSE|FALSE (ssRNA)
# RNA: GGGAGUUCUACAGUCCGACGAUCUCUUCACACCGGAGAAACAGGAAAAUAAAUAGAGUUCCCAGACGUAGACUCUCCUUUAGCACGUCUCUCUCAGACCUGGGCUAGUUUGUUUACUGGUCAAGAAGCUCUCAUCACAUCUGCCAACAGAGGAUUGAGCAUCA
# Biological target: T1, UNK ZnF1-3
# Assay: nsRBNS (natural sequence RNA bind-n-seq); RBNS binding buffer (assumed for nsRBNS): 25 mM Tris pH 7.5, 150 mM KCl, 3 mM MgCl2, 0.01% Triton X-100, 500 ug/ml BSA, 20 U/ml SUPERase-In, 4 C; UNK is unkempt and MSI1 is Musashi-1; names of the RNAs are library labels; protein concentration not given here; high values mean tight binding
row,Binder,binding signal
1,B1,0.98 enrichment R
2,B2,1.35 enrichment R
3,B3,1.23 enrichment R
4,B4,1.39 enrichment R
5,B5,0.899 enrichment R
6,B6,2.35 enrichment R
7,B7,1.27 enrichment R
8,B8,0.541 enrichment R
9,B9,1.06 enrichment R
10,B10,1.58 enrichment R
11,B11,1.21 enrichment R
12,B12,2.62 enrichment R
13,B13,2.13 enrichment R
14,B14,1.21 enrichment R
